Drawing on article PMC3791423, this text covers binding for 15 substances.

These are yes or no findings as the source states them, for the method shown. Some binding calls cover weakened binding; strength is not graded here.

The target of this assay is Klebsiella pneumoniae σ^54 (Klebsiella pneumoniae) (UniProt P06223). Nature of the assay: native gel or EMSA; ADP-AlFx trapping assay: 2.35 μM σ^54, ± 0.3 μM core RNAP, 5 mM NaF, 4 mM ADP in STA buffer, 37 °C; then 10 μM PspF_(1–275) and 0.4 mM AlCl3 for 15 min; native gel, SYPRO Ruby; both purified. A general note: A gel shift assay detects complexes by their altered migration in electrophoresis.
In the case of “PspF_(1–275) F60C (from UniProt P37344 1-275) (domain or fragment)”, the binding result is “no binding (tested: 10 μM PspF_(1–275), 2.35 μM σ^54)”.
For “PspF_(1–275) G58C (from UniProt P37344 1-275) (domain or fragment)” the value was “binds”; for “PspF_(1–275) H50C (from UniProt P37344 1-275) (domain or fragment)”, “no binding (tested: 10 μM PspF_(1–275), 2.35 μM σ^54)”; for “PspF_(1–275) I61C (from UniProt P37344 1-275) (domain or fragment)”, “no binding (tested: 10 μM PspF_(1–275), 2.35 μM σ^54)”.
For “PspF_(1–275) L52C (from UniProt P37344 1-275) (domain or fragment)” the value was “binds”.
For “PspF_(1–275) P59C (from UniProt P37344 1-275) (domain or fragment)” the value was “binds”; for “PspF_(1–275) Q57C (from UniProt P37344 1-275) (domain or fragment)”, “binds”; for “PspF_(1–275) R55C (from UniProt P37344 1-275) (domain or fragment)”, “binds”.
Turning to “PspF_(1–275) S53C (from UniProt P37344 1-275) (domain or fragment)”, the binding result is “binds”.
The entry for “PspF_(1–275) S54C (from UniProt P37344 1-275) (domain or fragment)” is “binds”; for “PspF_(1–275) S62C (from UniProt P37344 1-275) (domain or fragment)” it is “binds”; for “PspF_(1–275) W56A (from UniProt P37344 1-275) (domain or fragment)” it is “binds”.
The entry for “PspF_(1–275) W56C (from UniProt P37344 1-275) (domain or fragment)” is “binds”; for “PspF_(1–275) WT (from UniProt P37344 1-275) (domain or fragment)” it is “binds”.
For the substance “PspF_(1–275) Y51C (from UniProt P37344 1-275) (domain or fragment)”, the binding entry is on record as “binds”.
